Experimental findings from the supplement of paper PMC9938546 are described below.

Structures can show the parent of a compound that is named as a salt. The list shows a part of the results. Repeats are few or missing, and single values can be far off.
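Also: viability estimated indirectly by image-based GFP quantification with live-cell imaging of the constitutively GFP-expressing human colorectal cancer line, no immune cells added.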

In the assay the test system is HCT116-GFP. The assay can be described thus: HCT116-GFP viability (GFP intensity) relative to untreated control, monoculture; higher = less cancer cell killing. The settings on record: culture: HCT116-GFP monoculture; 10 µM; 72 h.
In the case of `CC(=O)CC(c1ccc([N+](=O)[O-])cc1)c1c(O)c2ccccc2oc1=O` (centres undefined) [Acenocoumarol], the HCT116-GFP viability is 95.4%.

For the compound `CN(Cc1ccc(C(C)(C)C)cc1)Cc1cccc2ccccc12` [Butenafine Hydrochloride], the HCT116-GFP viability was 86.7%.

For the compound `COc1ccccc1OCC(O)CO` (centres undefined) [Guaifenesin], the HCT116-GFP viability came out at 96%.

As for `NC[C@@H]1O[C@H](O[C@H]2[C@@H](O)[C@H](O[C@@H]3[C@@H](O)[C@H](N)C[C@H](N)[C@H]3O[C@H]3O[C@H](CO)[C@@H](O)[C@H](O)[C@H]3N)O[C@@H]2CO)[C@H](N)[C@@H](O)[C@@H]1O` [Paromomycin sulfate], the HCT116-GFP viability was 103%.

`Nc1nc(CC(=O)Nc2ccc(CCNC[C@H](O)c3ccccc3)cc2)cs1` [Mirabegron]: the HCT116-GFP viability is 76.5%.

As for `CC(=O)[C@H]1CC[C@H]2[C@@H]3C=CC4=CC(=O)CC[C@@]4(C)[C@@H]3CC[C@]12C` [Dydrogesterone], the HCT116-GFP viability was found to be 110%.

On to `CN1[C@@H]2CC[C@H]1C[C@@H](OC(=O)c1c[nH]c3ccccc13)C2` [Tropisetron hydrochloride], for which the HCT116-GFP viability turned out to be 94.2%.

As to `N#Cc1cc(NC(=O)C(=O)O)c(Cl)c(NC(=O)C(=O)O)c1` [Lodoxamide], the HCT116-GFP viability amounted to 87.3%.

For the compound `Cc1cccc(C)c1OCC(C)N` (centres undefined) [Mexiletine hydrochloride], the HCT116-GFP viability turned out to be 98.8%.

With `COc1ccc(/C=C/C(=O)Nc2ccccc2C(=O)O)cc1OC` [Tranilast], the HCT116-GFP viability turned out to be 99.3%.

On to `CCOC(=O)C1=C(COCCN)NC(C)=C(C(=O)OC)C1c1ccccc1Cl` (centres undefined) [Amlodipine], for which the HCT116-GFP viability was found to be 32.7%.

In the case of `Cc1c(N(C)C)c(=O)n(-c2ccccc2)n1C` [Amidopyrine], the HCT116-GFP viability was found to be 104%.

As to `Oc1c(Cl)cc(Cl)c(Cl)c1Cc1c(O)c(Cl)cc(Cl)c1Cl` [Hexachlorophene], the HCT116-GFP viability was 16.8%.

As to `Cc1cccc(C)c1NC(=O)C(C)N` (centres undefined) [Tocainide hydrochloride], the HCT116-GFP viability stood at 104%.

With `CC(C(=O)O)c1ccc2c(c1)[nH]c1ccc(Cl)cc12` (centres undefined) [Carprofen], the HCT116-GFP viability was 92.5%.

For `CCCCc1cc2ccccc2c(OCCN(C)C)n1` [Dimethisoquin hydrochloride], the HCT116-GFP viability was 91.1%.

Turning to `CN(C)C(=O)C(CCN1CCC(O)(c2ccc(Cl)cc2)CC1)(c1ccccc1)c1ccccc1` [Loperamide hydrochloride], the HCT116-GFP viability is 47.9%.

For the compound `CC(C(=O)O)c1ccc(-c2ccccc2)c(F)c1` (centres undefined) [Flurbiprofen], the HCT116-GFP viability came out at 95%.

For the compound `O=C(OCC(O)CO)c1ccccc1Nc1ccnc2cc(Cl)ccc12` (centres undefined) [Glafenine hydrochloride], the HCT116-GFP viability came to 100%.

As for `C[C@H]1O[C@@H](O[C@H]2[C@@H](O)C[C@H](O[C@H]3[C@@H](O)C[C@H](O[C@H]4CC[C@@]5(C)[C@H](CC[C@@H]6[C@@H]5C[C@@H](O)[C@]5(C)[C@@H](C7=CC(=O)OC7)CC[C@]65O)C4)O[C@@H]3C)O[C@@H]2C)C[C@H](O)[C@@H]1O` [Digoxin], the HCT116-GFP viability amounted to 4.42%.

In the case of `COc1cc([S+](C)[O-])ccc1-c1nc2cccnc2[nH]1` (centres undefined) [Sulmazole], the HCT116-GFP viability was found to be 117%.

Regarding `C(=C\c1ccccc1)/CN1CCN(C(c2ccccc2)c2ccccc2)CC1` [Cinnarizine], the HCT116-GFP viability stood at 97.8%.

Take `O=C(C1CCCCC1)N1CC(=O)N2CCc3ccccc3C2C1` (centres undefined) [Praziquantel]: the HCT116-GFP viability worked out at 100%.

Turning to `CN1CCC(=C2c3ccccc3CCc3cccnc32)CC1` [Azatadine maleate], the HCT116-GFP viability was 94.3%.

As to `Nc1nc2ccc(OC(F)(F)F)cc2s1` [Riluzole hydrochloride], the HCT116-GFP viability was 93.2%.

As for `COc1ccc2c(c1)c(CC(=O)O)c(C)n2C(=O)c1ccc(Cl)cc1` [Indomethacin], the HCT116-GFP viability stood at 87.1%.

Take `C=C1c2c(Cl)ccc(O)c2C(=O)C2=C(O)[C@]3(O)C(=O)C(C(N)=O)=C(O)[C@@H](N(C)C)[C@@H]3[C@@H](O)[C@H]12.O=C(O)c1cc(S(=O)(=O)O)ccc1O` [Meclocycline sulfosalicylate]: the HCT116-GFP viability came out at 58.1%.

With `CC(C)(C)NCC(O)COc1cccc2c1CCC(=O)N2` (centres undefined) [Carteolol hydrochloride], the HCT116-GFP viability amounted to 98.6%.

Consider `CC(=O)NCCCS(=O)(=O)O` [Acamprosate calcium], for which the HCT116-GFP viability came to 102%.

With `CCOC(=O)O[C@]1(C(=O)COC(=O)CC)CC[C@H]2[C@@H]3CCC4=CC(=O)C=C[C@]4(C)[C@H]3[C@@H](O)C[C@@]21C` [Prednicarbate], the HCT116-GFP viability was found to be 84.9%.

Regarding `CC[C@H](C)[C@H](N)C1=N[C@H](C(=O)N[C@@H](CC(C)C)C(=O)N[C@H](CCC(=O)O)C(=O)N[C@H](C(=O)N[C@H]2CCCCNC(=O)[C@H](CC(N)=O)NC(=O)[C@@H](CC(=O)O)NC(=O)[C@H](Cc3cnc[nH]3)NC(=O)[C@@H](Cc3ccccc3)NC(=O)[C@H]([C@@H](C)CC)NC(=O)[C@@H](CCCN)NC2=O)[C@@H](C)CC)CS1` [Bacitracin], the HCT116-GFP viability was 97.3%.

As for `COc1ccc(OC)c(C(O)CNC(=O)CN)c1` (centres undefined) [Midodrine hydrochloride], the HCT116-GFP viability stood at 102%.

`CN(C)CCN1C(=O)c2ccccc2N(C)c2ccccc21` [Dibenzepine hydrochloride]: the HCT116-GFP viability amounted to 106%.

`CN1CCN(CCCN2c3ccccc3Sc3ccc(C(F)(F)F)cc32)CC1` [Trifluoperazine dihydrochloride]: the HCT116-GFP viability turned out to be 44.1%.

As to `Nc1ccn([C@H]2CC[C@@H](CO)O2)c(=O)n1` [Zalcitabine], the HCT116-GFP viability worked out at 107%.

Take `CN(C(=O)C(Cl)Cl)c1ccc(OC(=O)c2ccco2)cc1` [Diloxanide furoate]: the HCT116-GFP viability turned out to be 103%.

In the case of `CC(=O)c1ccc2c(c1)N(CCCN(C)C)c1ccccc1S2` [Acetopromazine maleate salt], the HCT116-GFP viability worked out at 84.5%.

In the case of `CN(C)CCOC(C)(c1ccccc1)c1ccccn1` (centres undefined) [Doxylamine succinate], the HCT116-GFP viability amounted to 90.5%.

`CC(C)(C#N)c1cc(Cn2cncn2)cc(C(C)(C)C#N)c1` [Anastrozole]: the HCT116-GFP viability came out at 85.9%.

For the compound `Oc1c(I)cc(Cl)c2cccnc12` [Clioquinol], the HCT116-GFP viability was 60.7%.

As for `O=C(O)c1cn(C2CC2)c2cc(N3CCNCC3)c(F)cc2c1=O` [Ciprofloxacin hydrochloride monohydrate], the HCT116-GFP viability turned out to be 98.5%.

As to `C#CCN[C@@H]1CCc2ccccc21` [Rasagiline], the HCT116-GFP viability worked out at 91%.

Consider `COc1ccc(-c2cc(=S)ss2)cc1` [Anethole-trithione], for which the HCT116-GFP viability came out at 92.8%.

`COc1cc(C(=O)NCc2ccc(OCCN(C)C)cc2)cc(OC)c1OC` [Trimethobenzamide hydrochloride]: the HCT116-GFP viability came to 104%.

For the compound `C1CCC(C(CC2CCCCN2)C2CCCCC2)CC1` (centres undefined) [Perhexiline maleate], the HCT116-GFP viability worked out at 4.24%.

With `CC(=O)[C@@]1(O)CC[C@H]2[C@@H]3C[C@H](C)C4=CC(=O)C=C[C@]4(C)[C@@]3(F)[C@@H](O)C[C@@]21C` [Fluorometholone], the HCT116-GFP viability came to 115%.

For `CCc1nc(N)nc(N)c1-c1ccc(Cl)cc1` [Pyrimethamine], the HCT116-GFP viability was 40.8%.

Turning to `CC(C)NCC(O)COc1ccc(CCOCC2CC2)cc1` (centres undefined) [Betaxolol hydrochloride], the HCT116-GFP viability came out at 102%.

With `C[C@H]1c2cccc(O)c2C(=O)C2=C(O)[C@]3(O)C(=O)C(C(N)=O)=C(O)[C@@H](N(C)C)[C@@H]3[C@@H](O)[C@@H]21` [Doxycycline hydrochloride], the HCT116-GFP viability was determined as 65.2%.

`CCCC1C(=O)N2C(N(C)C)=Nc3ccc(C)cc3N2C1=O` (centres undefined) [Azapropazone]: the HCT116-GFP viability amounted to 99.7%.

In the case of `Clc1ccc(C(Cn2ccnc2)OCc2ccsc2Cl)c(Cl)c1` (centres undefined) [Tioconazole], the HCT116-GFP viability worked out at 64.5%.

As to `c1cnc(N2CCN(Cc3ccc4c(c3)OCO4)CC2)nc1` [Piribedil hydrochloride], the HCT116-GFP viability amounted to 96.2%.

For `C[C@](N)(Cc1ccc(O)c(O)c1)C(=O)O` [Methyldopa (L,-)], the HCT116-GFP viability amounted to 109%.

Regarding `CCOC(=O)O[C@]1(C(=O)OCCl)CC[C@H]2[C@@H]3CCC4=CC(=O)C=C[C@]4(C)[C@H]3[C@@H](O)C[C@@]21C` [Loteprednol etabonate], the HCT116-GFP viability stood at 82%.

Consider `Cc1ccc(NC(=O)c2ccc(CN3CCN(C)CC3)cc2)cc1Nc1nccc(-c2cccnc2)n1` [Imatinib], for which the HCT116-GFP viability was found to be 90.8%.

Regarding `CN[C@@H]1[C@H](O)[C@H](NC)[C@H]2O[C@@]3(O)C(=O)C[C@@H](C)O[C@H]3O[C@@H]2[C@H]1O` [Spectinomycin dihydrochloride], the HCT116-GFP viability turned out to be 79.6%.

`NS(=O)(=O)c1cc2c(cc1Cl)NC(C(Cl)Cl)NS2(=O)=O` (centres undefined) [Trichlormethiazide]: the HCT116-GFP viability worked out at 91.2%.

As to `C#Cc1cccc(Nc2ncnc3cc(OCCOC)c(OCCOC)cc23)c1` [Erlotinib], the HCT116-GFP viability was found to be 47.7%.

Consider `N[C@@H](C(=O)N[C@@H]1C(=O)N2C(C(=O)O)=C(Cl)CC[C@H]12)c1ccccc1` [Loracarbef], for which the HCT116-GFP viability came out at 91.4%.

`Cc1onc(-c2ccccc2Cl)c1C(=O)N[C@@H]1C(=O)N2[C@@H]1SC(C)(C)[C@@H]2C(=O)O` [Cloxacillin sodium salt]: the HCT116-GFP viability stood at 98.3%.

Take `CC(C)Nc1cccnc1N1CCN(C(=O)c2cc3cc(NS(C)(=O)=O)ccc3[nH]2)CC1` [Delavirdine]: the HCT116-GFP viability amounted to 91.9%.

As for `CN[C@@H]1[C@@H](O[C@H]2O[C@H](CO)[C@@H](N)[C@H](O)[C@H]2O)OC2C[C@@H](N)[C@@H](O[C@H]3[C@H](O)[C@@H](O)[C@H](N)C[C@@H]3N)OC2[C@@H]1O` (some centres undefined) [Apramycin], the HCT116-GFP viability came out at 107%.

For `Cc1c(-c2ccccc2)oc2c(C(=O)OCCN3CCCCC3)cccc2c1=O` [Flavoxate hydrochloride], the HCT116-GFP viability turned out to be 102%.

Turning to `CC(C)(CO)C(O)C(=O)NCCCO` (centres undefined) [Panthenol (D)], the HCT116-GFP viability was 100%.

On to `CN(C)C/C=C(/c1ccc(Br)cc1)c1cccnc1` [Zimelidine dihydrochloride monohydrate], for which the HCT116-GFP viability came out at 110%.

`CCOc1ccc2ccccc2c1C(=O)N[C@@H]1C(=O)N2[C@@H]1SC(C)(C)[C@@H]2C(=O)O` [Nafcillin sodium salt monohydrate]: the HCT116-GFP viability is 107%.

In the case of `CCN(CC)CCNC(=O)c1cc(Cl)c(N)cc1OC` [Metoclopramide monohydrochloride], the HCT116-GFP viability amounted to 98.6%.

With `Cn1cnc2c1c(=O)[nH]c(=O)n2C` [Theobromine], the HCT116-GFP viability turned out to be 91.9%.

Take `O=C(N[C@H](CO)[C@H](O)c1ccc([N+](=O)[O-])cc1)C(Cl)Cl` [Chloramphenicol]: the HCT116-GFP viability worked out at 88.2%.
